Reference: PubChem BioAssay AID2675 (National Center for Advancing Translational Sciences (NCATS), 2010)
In all, about 280,000 compounds went through this assay and about 100 (0.036%) were called active. This list was built around the results that the source calls inconclusive (neither active nor inactive); the mix of calls is not that of the screen. The call rests on the fitted dose curve; in most records, active means well fitted inhibition curve with a large enough effect in the signal ratio, with a control signal flat (not every such curve was filed as active); inconclusive means small, poorly fitted or top-dose-only effect, or effect the other way, or a change in a side signal; inactive means no such curve, though single readings can be large or run the other way; the % refers to the signal ratio. Potencies of inconclusive entries are doubtful fits and often do not repeat. A note “side channel” means that the fit belongs to a control or component signal, not to the main read-out.

These compounds were tested against Muscleblind-like protein 1 (Homo sapiens) (UniProt Q9NR56) (assay: qHTS Assay for Inhibitors of MBNL1-poly(CUG) RNA binding). Details: TR-FRET MBNL1-His/biotin-(CUG)12 binding, 665/545 ratio; activity change, negative = inhibition: at 57.5 µM (top of the series).
In short: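 TR-FRET between His-tagged MBNL1 and biotin-(CUG)12 RNA, detected with Tb anti-His antibody (0.055 ng/ul) and streptavidin-XL665 (5 nM), 60 min at room temperature. Compounds titrated 92 nM to 58 uM; 665/545 nm ratio normalized to buffer and complex controls.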
On the % scale 0 is the no-effect control and ±100 the full control effect; potency means the concentration at half of the fitted maximal effect; tags describe the fitted curve by direction and shape or compound fluorescence and quenching.

UniProt Q9NR56, sequence (Q9NR56 whole entry, looked up): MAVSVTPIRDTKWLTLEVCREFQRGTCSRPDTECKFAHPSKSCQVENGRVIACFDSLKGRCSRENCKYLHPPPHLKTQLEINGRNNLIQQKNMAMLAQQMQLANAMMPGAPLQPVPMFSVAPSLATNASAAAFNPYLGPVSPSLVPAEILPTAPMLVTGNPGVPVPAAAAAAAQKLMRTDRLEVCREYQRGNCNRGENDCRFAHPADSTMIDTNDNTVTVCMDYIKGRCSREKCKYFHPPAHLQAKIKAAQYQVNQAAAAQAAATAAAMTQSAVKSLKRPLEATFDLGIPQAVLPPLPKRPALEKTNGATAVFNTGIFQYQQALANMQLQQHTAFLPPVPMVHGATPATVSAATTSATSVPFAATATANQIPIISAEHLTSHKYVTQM

Row | SMILES | Potency | activity change, negative = inhibition
1 | CC(=O)c1ccc(N2CCN(c3ncccn3)CC2)c([N+](=O)[O-])c1 | inconclusive: 11.2 µM [quencher, side channel, partial curve] | 
2 | COc1ccc(OCCOc2cccc(C=C3C(=O)NC(=O)NC3=O)c2)cc1 |  | inactive: -2.54%
3 | CSc1ccc(C(c2c(O)c3ccccc3oc2=O)c2c(C)n(C)n(-c3ccccc3)c2=O)cc1 (configuration not stated) |  | inactive: -9.62%
4 | Cc1sc2ccccc2c1CC1=NCCN1 | inconclusive: 14.1 µM [quencher, side channel, partial curve] | 
5 | O=c1[nH]c(O)c(/C=C2\C=NN=C2c2ccccc2)c(=O)[nH]1 |  | inactive: -3.44%
6 | O=C(OCC(=O)c1ccc([N+](=O)[O-])cc1)/C(=C/c1ccc(Cl)cc1)NC(=O)c1ccccc1 | inconclusive: 2.82 µM [quencher, side channel, single point] | 
7 | OC(COCc1ccc(Cl)cc1)CN1CC=C(c2ccccc2)CC1 (configuration not stated) |  | inactive: -2.27%
8 | Cc1nc2ccccc2c(=O)n1-c1cc([N+](=O)[O-])cc([N+](=O)[O-])c1 | inconclusive: 12.6 µM [quencher, side channel, partial curve] | 
9 | c1cncc(CNCCc2ccc3c(c2)OCO3)c1 |  | inactive: -1.22%
10 | O=[N+]([O-])c1ccc(NCCCN2CCOCC2)nc1 | inconclusive: 28.2 µM [quencher, side channel, partial curve] | 
11 | COc1ccc(-n2c(/C=C/c3ccc(O)cc3)nc3ccccc3c2=O)cc1 | inconclusive: 28.2 µM [quencher, side channel, single point] | 
12 | Cc1cc(O)c2c(C)c(CC(=O)N3C[C@H]4C[C@@H](C3)c3cccc(=O)n3C4)c(=O)oc2c1 | inconclusive: 12.6 µM [quencher, side channel, partial curve] | 
13 | COc1cc2c(cc1O)C[C@H]1NCCc3cc4c(c-2c31)OCO4 | inconclusive: 17.8 µM [quencher, side channel, partial curve] | 
14 | CC(=O)Nc1nnc(S(N)(=O)=O)s1 | inconclusive: 631 µM [inhibitor, single point] | 
15 | Cc1cc(Oc2ccc(C(F)(F)F)cc2[N+](=O)[O-])c2c3c(c(=O)oc2c1)CCCC3 | inconclusive: 31.6 µM [fluorescent, side channel, partial curve] | 
16 | COC(=O)C1=Nc2ccccc2/C1=C\c1c(O)n(-c2cc(OC)ccc2OC)c(=O)[nH]c1=O | inconclusive: 22.4 µM [quencher, side channel, single point] | 
17 | CC(C)CN(CC(C)C)c1ccc(C=C2C(=O)NC(=S)NC2=O)cc1[N+](=O)[O-] | inconclusive: 25.1 µM [quencher, side channel, single point] | 
18 | O=C(Cc1ccccc1)OCC(=O)c1ccccc1 |  | inactive: -1.13%
19 | CNc1cc(Cl)c2nonc2c1[N+](=O)[O-] | inconclusive: 12.6 µM [quencher, side channel, partial curve] | 
20 | CC1CN(c2ccc([N+](=O)[O-])cc2Cl)CCN1 (configuration not stated) | inconclusive: 15.8 µM [quencher, side channel, partial curve] | 
21 | Cc1cc(OCC(=O)OC(C)C)c2c3c(c(=O)oc2c1)CCCC3 | inconclusive: 28.2 µM [fluorescent, side channel, single point] | 

Row | SMILES | Potency | activity change, negative = inhibition
22 | Cc1ccc(CN2CCCN(Cc3ccc(Cl)cc3)S2(=O)=O)cc1 |  | inactive: -2.19%
23 | CCOc1ccccc1-n1c(O)c(C=Nc2ccc(N(CC)CC)cc2)c(=O)[nH]c1=O | inconclusive: 1.58 µM [quencher, side channel, full curve, poor fit] | 
24 | O=[N+]([O-])c1ccc(N2CCCC(C(F)(F)F)C2)c2ccncc12 (configuration not stated) | inconclusive: 7.08 µM [quencher, side channel, partial curve] | 
25 | O=c1[nH]c(=O)n(Cc2ccccc2Cl)c(O)c1/C=C1/C=CC=N1 | inconclusive: 20 µM [quencher, side channel, partial curve] | 
26 | COc1cccc(OC)c1CN1CCCC(C(=O)c2cccc(Cl)c2)C1 (configuration not stated) |  | inactive: 1.53%
27 | Cc1ccc(-n2c(O)c(C=NCCN3CCOCC3)c(=O)[nH]c2=O)cc1 |  | inactive: -6.5%
28 | COc1ccccc1/C=C1\C(=O)NC(=S)N(c2ccccc2)C1=O |  | inactive: 3.46%
29 | C=C1CC[C@@]2(O)[C@H]3Cc4ccc(O)c5c4[C@@]2(CCN3CC2CC2)[C@H]1O5 | inconclusive: 100 µM [inhibitor, partial curve] | 
30 | Cc1nc2ccccc2c(=O)n1-c1ccc(Br)cc1[N+](=O)[O-] | inconclusive: 12.6 µM [quencher, side channel, partial curve] | 
31 | O=[N+]([O-])c1cccc(CN2CC=C(c3ccc(F)cc3)CC2)c1 |  | inactive: 17.6%
32 | CCS(=O)(=O)N1Cc2ccccc2CC1C(=O)NCC12CC3CC(CC(C3)C1)C2 (configuration not stated) | inconclusive: 7.08 µM [fluorescent, side channel, single point] | 
33 | COC[C@H]1OC(=O)c2coc3c2[C@@]1(C)C1=C(C3=O)C2CCC(=O)[C@@]2(C)C[C@H]1OC(C)=O (some centres not stated) | inconclusive: 15.8 µM [quencher, side channel, partial curve] | 
34 | O=C1/C(=C/c2ccc([N+](=O)[O-])cc2)N2CCC1CC2 | inconclusive: 3.98 µM [quencher, side channel, partial curve, poor fit] | 
35 | COc1ccc(-n2c(O)c(/C=C/C=Nc3ccccc3)c(=O)[nH]c2=O)cc1 | inconclusive: 20 µM [quencher, partial curve] | 
36 | Nc1nonc1C(=O)N/N=C/c1ccc([N+](=O)[O-])o1 | inconclusive: 39.8 µM [quencher, single point] | 
37 | CCOC(=O)C1(c2ccccc2)CCN(CC(=O)Nc2ccc(C)cc2)CC1 |  | inactive: -1.7%
38 | O=C(CNC(=O)c1cccs1)NCC(=O)OCC(=O)c1ccc([N+](=O)[O-])cc1 | inconclusive: 14.1 µM [quencher, side channel, partial curve] | 
39 | COc1ccc(/C=C2\SC(=O)N(CCn3cnnn3)C2=O)cc1 | inconclusive: 44.7 µM [quencher, side channel, partial curve, poor fit] | 
40 | O=C1NC(=O)C(=Cc2ccc(N3CCOCC3)o2)C(=O)N1 | inconclusive: 39.8 µM [quencher, single point] | 
41 | COc1ccc(-c2nn(CCC#N)cc2C(=O)NCc2ccccc2)cc1[N+](=O)[O-] | inconclusive: 25.1 µM [quencher, side channel, partial curve] | 
42 | Cn1c(O)c(/C=N/NC(=O)c2ccncc2)c(=O)[nH]c1=S | inconclusive: 14.1 µM [quencher, side channel, partial curve] | 

Row | SMILES | Potency | activity change, negative = inhibition
43 | CN(CCc1ccccc1)Cc1c[nH]c2ccccc12 |  | inactive: 3.2%
44 | O=C1Nc2ccccc2/C1=C/c1cnc[nH]1 | inconclusive: 14.1 µM [quencher, side channel, partial curve] | 
45 | COc1ccc(C(C)=O)cc1CC(C(=O)c1ccc(F)cc1)N(C)C (configuration not stated) | inconclusive: 0.1 µM [fluorescent, side channel, full curve] | 
46 | O=C1NC(=O)C(C(CC(=O)c2ccccc2)c2ccccc2)C(=O)N1 (configuration not stated) | inconclusive: 20 µM [quencher, side channel, partial curve] | 
47 | CN(C(=O)Oc1ccc([N+](=O)[O-])cc1)c1ccccc1 | inconclusive: 28.2 µM [quencher, side channel, single point] | 
48 | Cc1ccc(CN2CCSc3ccc(C(=O)N4CCC5(CC4)OCCO5)cc32)cc1 |  | inactive: 13.8%
49 | COc1ccc(CN2CC=C(c3ccc(F)cc3)CC2)cc1Br |  | inactive: -1.84%
50 | Clc1ccc2[nH]c3c(c2c1)CCNC3 |  | inactive: -1.81%
51 | O=C1c2cc([N+](=O)[O-])ccc2-c2ncccc21 | inconclusive: 2.51 µM [quencher, full curve] | 
52 | Nc1cncc(C(=O)O)c1 | inconclusive: 4.47 µM [quencher, side channel, full curve] | 
53 | NC(=O)C1(N2CCCCC2)CCN(Cc2ccccc2)CC1 |  | inactive: 1.81%
54 | CN1CC=C2C(C#N)=C(N)C(C#N)(C#N)C(c3ccncc3)C2C1 (configuration not stated) | inconclusive: 28.2 µM [quencher, partial curve] | 
55 | CC1CCCN(c2ccc(C(=O)N3CCC4(CC3)OCCO4)cc2[N+](=O)[O-])C1 (configuration not stated) | inconclusive: 28.2 µM [quencher, partial curve] | 
56 | O=C(C(Cc1ccccc1)NS(=O)(=O)c1cccc2nsnc12)N1CCC2(CC1)OCCO2 (configuration not stated) | inconclusive: 12.6 µM [quencher, side channel, partial curve] | 
57 | Cc1ccccc1-n1c(O)c(C=Nc2ccc(N(C)C)cc2)c(=O)[nH]c1=O | inconclusive: 17.8 µM [quencher, single point] | 
58 | C[C@]12CCC3C(CCC4=C/C(=N/OCC(=O)NC(CCC(=O)O)C(=O)O)CC[C@@]43C)C1CCC2O (some centres not stated) |  | inactive: -3.78%
59 | O=C(c1cccn2c(=O)c3cc(Cl)ccc3nc12)N1CCC2(CC1)OCCO2 | inconclusive: 10 µM [quencher, side channel, partial curve] | 
60 | CCCCN1C(=O)NC(=O)C2(Cc3c(nc4c(C)cccn4c3=O)N3CCc4ccccc4C32)C1=O (configuration not stated) | inconclusive: 35.5 µM [fluorescent, side channel, single point] | 
61 | Cc1c(OC(C(=O)O)c2ccccc2)ccc2c1oc(=O)c1ccccc12 (configuration not stated) | inconclusive: 39.8 µM [fluorescent, side channel, single point] | 
62 | C[n+]1ccc(-c2ccncc2)cc1 | inconclusive: 31.6 µM [quencher, side channel, partial curve] | 
